The campaign covered roughly 310,000 compounds. About 14,000 (4.5%) showed an effect of 50% or more. The effect is printed as a negative number. The list shows a part of the results.
Target: human ether-à-go-go-related gene (hERG) potassium channel (human, UniProt Q12809)
Assay: primary screen, population patch clamp on CHO cells stably expressing hERG
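Also: peak tail current of the secondary pulse compared with the same well before compound.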

Chain of human ether-à-go-go-related gene (hERG) potassium channel (Q12809 whole entry, looked up): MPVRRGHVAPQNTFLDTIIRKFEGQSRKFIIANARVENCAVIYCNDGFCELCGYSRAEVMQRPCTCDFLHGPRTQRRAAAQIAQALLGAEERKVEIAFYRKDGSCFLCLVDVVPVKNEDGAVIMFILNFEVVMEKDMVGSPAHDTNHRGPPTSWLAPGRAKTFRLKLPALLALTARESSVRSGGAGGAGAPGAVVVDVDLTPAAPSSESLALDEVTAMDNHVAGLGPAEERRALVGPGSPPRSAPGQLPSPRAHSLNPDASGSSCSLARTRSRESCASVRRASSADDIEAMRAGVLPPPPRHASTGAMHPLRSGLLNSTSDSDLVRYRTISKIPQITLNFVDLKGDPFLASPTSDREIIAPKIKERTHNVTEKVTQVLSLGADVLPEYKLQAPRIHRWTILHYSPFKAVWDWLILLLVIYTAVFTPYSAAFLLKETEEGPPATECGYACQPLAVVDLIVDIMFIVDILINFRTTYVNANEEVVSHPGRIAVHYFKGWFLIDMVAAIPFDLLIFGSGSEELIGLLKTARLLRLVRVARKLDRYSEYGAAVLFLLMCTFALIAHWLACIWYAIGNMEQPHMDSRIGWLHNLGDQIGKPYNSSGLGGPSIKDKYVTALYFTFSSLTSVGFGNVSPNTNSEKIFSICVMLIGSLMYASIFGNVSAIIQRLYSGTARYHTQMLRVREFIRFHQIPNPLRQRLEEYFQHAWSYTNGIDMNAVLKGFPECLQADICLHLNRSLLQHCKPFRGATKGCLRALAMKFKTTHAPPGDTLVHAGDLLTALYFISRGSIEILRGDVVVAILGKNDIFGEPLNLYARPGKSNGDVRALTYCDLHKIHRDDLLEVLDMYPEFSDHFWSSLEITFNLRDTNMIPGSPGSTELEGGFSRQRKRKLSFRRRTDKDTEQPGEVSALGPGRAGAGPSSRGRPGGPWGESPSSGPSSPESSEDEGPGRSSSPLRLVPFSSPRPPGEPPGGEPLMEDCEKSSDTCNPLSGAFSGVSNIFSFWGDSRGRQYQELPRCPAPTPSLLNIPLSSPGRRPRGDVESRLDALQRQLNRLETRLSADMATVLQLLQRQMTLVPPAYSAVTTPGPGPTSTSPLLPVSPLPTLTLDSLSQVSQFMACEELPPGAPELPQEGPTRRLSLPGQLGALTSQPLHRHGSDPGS

SMILES | hERG current change (%, negative = inhibition) at 10uM [%]
C=Cn1ccnc1P(=S)(c1ccn(C)c1)c1nccn1C=C | 5.65
COc1ccc(S(=O)(=O)N2CCc3ccccc32)cc1C(=O)Nc1ccc(C(N)=O)cc1 | 9.8
C#CCOc1c(Cl)cc(/C=C2/C(=O)ON=C2C)cc1OCC | 11.4
O=C(c1c[nH]c(C(=O)C(Cl)(Cl)Cl)c1)c1c(F)cccc1F | 4.2
CC(=O)c1cccc(NC(=O)COC(=O)c2cccc(N3C(=O)c4ccccc4C3=O)c2)c1 | 2.69
CCOC(=O)N1CCN(S(=O)(=O)c2cccc3nsnc23)CC1 | -3.82
CC(=O)Nc1ccc(NC(=O)c2ccnn2C)cc1 | 2.03
COc1ccc(S(=O)(=O)N2CCN(C(=O)c3c(C)nn(-c4ccccc4)c3Cl)CC2)cc1 | -19.4
C/C(=N\NS(=O)(=O)c1ccccc1)c1ccc2c(c1)OCCO2 | 2.11
NC(=O)c1ccccc1NC(=O)C1CCCO1 (stereo not shown) | 8.51
CCn1c(CSc2ncccn2)nnc1SCC(=O)N1CCCCC1 | 54.8
COc1ccc(/C(N)=N/OC(=O)Cc2cccs2)cc1OC | 9.58
CC(C)Cn1c(=O)[nH]c(=O)c2c(C(F)(F)F)cc(-c3ccccc3)nc21 | 8.72
Cc1ccc(N2C(=O)CC(Sc3nc4ccccc4o3)C2=O)cc1Cl (stereo not shown) | 18.9
Cc1ccc(S(=O)(=O)N2CC2(C)CCl)cc1 (stereo not shown) | 11.5
Cc1cccc(NC(=O)CN2C(=O)CCS(=O)(=O)c3ccccc32)c1C | 3.24
Cc1cc(N2CCOCC2)ccc1/C=C1\NC(=O)N(Cc2ccccc2F)C1=O | 15.8
CNC(=O)NCC12CC3CC(CC(C3)C1)C2 | -5.63
Cc1nn(C2CCS(=O)(=O)C2)c(C)c1CN(C)C(=O)c1ccc(Cl)cc1 (stereo not shown) | -14.9
CC(C)C[C@@H](CO)N1CCN(CCCc2ccccc2)CCC1=O | -31.1

SMILES | hERG current change (%, negative = inhibition) at 10uM [%]
COC(=O)C1(C(=O)O)Cc2cc([N+](=O)[O-])ccc2N2CCCC21 (stereo not shown) | -3.64
CCC1CCCCN1S(=O)(=O)c1ccc(S(=O)(=O)N(Cc2cccs2)C2CC2)cc1 (stereo not shown) | 4.77
OCCC1CN(Cc2c(O)ccc3ccccc23)CCN1CCc1ccccc1 (stereo not shown) | -27.1
CO/N=C/CC(=O)c1ccc(-c2ccccc2)cc1 | 16.7
O=c1c(Cc2ccc(F)cc2)c(O)ccn1Cc1ccc(F)cc1 | 13.3
CCCn1nc(CC(=O)OCC)c2ccccc2c1=O | 0.251
O=C(O)c1cc(Cl)c2ccccc2c1O | -5.41
Cc1ccc(C(=O)NCC(=O)OCC(=O)c2ccc3c(c2)NC(=O)CO3)cc1C | -5.7
CC1(C)C2(C#N)C(N)=NC3(OCCO3)C12C#N (stereo not shown) | 23.4
COc1cc(OC)cc(C(=O)Nc2cccc(-c3ccc4nncn4n3)c2)c1 | 25.1
CCOc1cc(CNn2cnnc2)ccc1OCC(=O)NC1CCCCC1 | 8.74
CCOC(=O)c1cc2occc2n1CC(=O)N1CCOCC1 | 6.95
O=C(N/N=C\c1ccc2c(c1)OCO2)c1ccco1 | 6.5
CCOc1ccc(/C=N/NC(=O)NC23CC4CC(CC(C4)C2)C3)cc1O | -10.9
C=CCCC(=O)Nc1ccc(Br)cn1 | 11.3
O=C(CNc1cccc2ccccc12)N/N=C/c1ccc[nH]1 | 10.7
COc1ccc(-c2nnc(SCC(=O)c3cccs3)n2-c2ccc(Cl)cc2)cc1 | -16.2
CC1CCCCN1C(=O)CSc1nc2ncccc2[nH]1 (stereo not shown) | 13.7
O=C(CCCCCN1C(=O)c2ccccc2C1=O)Nc1ccc(F)cc1 | -0.382
CCn1cc2nc(SCC(=O)Nc3ccccc3F)n(Cc3ccccc3)c(=O)c2n1 | -70.6

SMILES | hERG current change (%, negative = inhibition) at 10uM [%]
O=C(NCc1ccco1)Nc1ccc(Br)cc1 | 3.85
COC(=O)c1ccccc1NS(C)(=O)=O | 17.1
Cc1cc(/C=C2/C(=O)N(C)C(=S)N2C)c(C)n1C1CC1 | 4.03
CN(C)c1nc(Oc2ccc(=O)n(-c3ccccc3)n2)nc(N2CCOCC2)n1 | 9.19
Cc1ccc(-n2cccc2/C=N/n2cnnc2)cc1Cl | -12.5
Cc1ccc(-c2csc3ncnc(SCC(=O)NCc4ccc5c(c4)OCO5)c23)cc1 | -0.903
CC(C)Oc1cccc(C(=O)C2CCCN(Cc3cnn(C(C)C)c3)C2)c1 (stereo not shown) | -36.3
Cc1ccc(S(=O)(=O)Cn2nnnc2C(CC(C)C)N2CCC(C(N)=O)CC2)cc1 (stereo not shown) | -12.2
CC(=C/c1ccccc1)/C=N/N1CCN(Cc2ccc(C)cc2)CC1 | -22.9
Cc1cccc(C(=O)OCC(=O)NCc2cccs2)c1 | 7.82
Cc1cccc(C)c1NC1=NC(=S)N(c2ccccc2)C12CCOC(C)(C)C2 (stereo not shown) | 17.4
Cc1nnsc1C(=O)N1CCC(C(=O)c2ccccc2)CC1 | 3.74
CCCCCOc1ccccc1C(=O)NCCC(=O)O | 16.7
COc1ccc(CNS(=O)(=O)c2cc3c(cc2Cl)NC(=O)CO3)cc1 | -24.7
Cc1cccc(C(=O)NC2CCN(CC(=O)NCc3ccccc3F)CC2)c1 | -33.2
COc1ccc2nc(NC(=O)C3CCN(S(=O)(=O)c4cccnc4)CC3)sc2c1 | -29.8
CCC(=O)NCCc1nc2cc(NC(=O)c3ccco3)ccc2n1C | 24.6
COc1cccc(CNC(=O)C2CCN(S(=O)(=O)N3CC(C)CC(C)C3)CC2)c1 (stereo not shown) | -8.41

From PMC4336329 (PLoS ONE, 2015)
